Source: PubChem BioAssay AID1030 (National Center for Advancing Translational Sciences (NCATS), 2008)
In all, about 220,000 compounds went through this assay and about 16,000 (7.3%) were called active. The shares of active, inactive and inconclusive entries below differ from those in the screen. Calls follow the shape of the dose curve; as a rule, active = well fitted inhibition curve with a large enough effect (not every such curve was filed as active); inconclusive = small, poorly fitted or top-dose-only effect, or another doubt; inactive = no such curve, though single readings can be large or run the other way. Where the call is inconclusive, the potency comes from a doubtful curve fit.

biological target: Aldehyde dehydrogenase 1A1 (Homo sapiens) (UniProt P00352); assay: qHTS Assay for Inhibitors of Aldehyde Dehydrogenase 1 (ALDH1A1); conditions: Purified ALDH1A1, NADH fluorescence, propionaldehyde substrate; series mostly up to 75.3 µM;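 as to activity, negative = inhibition: plate controls were no enzyme wells and a reference inhibitor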
Potency is read from the fitted curve at half-maximal effect; tags tell the direction and shape of the fitted curve.

UniProt P00352, sequence (P00352 whole entry, looked up): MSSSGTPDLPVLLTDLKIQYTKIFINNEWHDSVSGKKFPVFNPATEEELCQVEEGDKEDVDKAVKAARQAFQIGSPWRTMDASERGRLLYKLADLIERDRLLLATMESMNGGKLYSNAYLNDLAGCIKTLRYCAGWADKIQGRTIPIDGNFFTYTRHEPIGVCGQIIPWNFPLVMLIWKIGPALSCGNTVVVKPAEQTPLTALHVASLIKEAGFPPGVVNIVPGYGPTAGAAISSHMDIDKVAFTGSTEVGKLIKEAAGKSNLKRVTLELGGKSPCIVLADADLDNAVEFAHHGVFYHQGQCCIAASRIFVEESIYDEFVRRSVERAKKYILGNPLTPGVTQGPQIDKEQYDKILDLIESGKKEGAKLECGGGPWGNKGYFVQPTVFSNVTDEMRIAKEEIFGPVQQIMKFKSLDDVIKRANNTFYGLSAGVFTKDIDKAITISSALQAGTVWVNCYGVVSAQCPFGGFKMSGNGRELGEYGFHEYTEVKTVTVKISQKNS

Potency, inactive:
Cc1ccc(Oc2cc(NC(=O)CCCn3nc(C)c([N+](=O)[O-])c3C)cc([N+](=O)[O-])c2)cc1, COc1ccc(OC)c(NC(=S)NCCCN2CCOCC2)c1, COc1ccc2c(c1)C(C)=CC(C)(C)N2S(=O)(=O)c1ccc(Br)cc1, COC(=O)c1ccccc1NC(=O)c1noc2c1CC(C(C)(C)C)CC2 (stereo unspecified), O=C(COC(=O)c1ccncc1)Nc1cc(Cl)ccc1Cl, CNC(=S)N/N=C/c1cn(CCOc2ccc(OC)cc2)c2ccccc12, CC(OC(=O)Cc1ccc(Cl)cc1)C(=O)NCCC1=CCCCC1 (stereo unspecified), O=C(c1ccco1)N1CCN(c2cc(=O)n(C3CCCCC3)c(=O)[nH]2)CC1, Nc1nc(/C=C/c2cccnc2)nc(-c2ccccc2O)n1, Nc1nc(-c2c(Cl)cccc2Cl)no1, Cc1cc(C(=O)N/N=C/c2ccc(O)c(O)c2O)c(C)n1-c1ccccc1, Cc1nn(C(C)(C)C)c(OC(=O)c2ccco2)c1Sc1ccccc1, Cc1cc(C)cc(NC(=S)NCc2ccc(F)cc2)c1, CN(C)CCN(C(=O)CCc1ccccc1)c1nc2c(F)cc(F)cc2s1, O=C(Nc1nnc(SCc2ccc(F)cc2)s1)C1CC(=O)N(c2ccc3c(c2)OCCO3)C1 (stereo unspecified), CN(N)c1ccc2c(C(F)(F)F)cc(C(F)(F)F)nc2n1, O/N=C/c1cc(Cl)ccc1OCc1cccc2ccccc12, CC(C)C1=NN2C(=N)CC(=O)N=C2S1, CCOC(=O)C1CCN(Cc2cc(C(C)C)c(O)c(C(C)C)c2)CC1, CCCCN(C(=O)CN1CCOCC1)c1c(N)n(CC(C)C)c(=O)[nH]c1=O

Potency, inconclusive:
O=C(Nc1ccc(NC(=S)NC(=O)c2cccs2)cc1)c1ccccc1 39.8 µM [inhibitor, single point], CN1CCN(Cc2c(O)ccc3cc(-c4ccccn4)c(=O)oc23)CC1 25.1 µM [inhibitor, partial curve], CN=C1SC(CC(=O)Nc2sc(C)c(C)c2C(=O)OC)C(=O)N1C (stereo unspecified) 8.91 µM [inhibitor, single point], O=C1c2ccccc2NC(c2cccc(Cl)c2)N1N=C1CCCCCC1 (stereo unspecified) 28.2 µM [inhibitor, partial curve], OCCSc1nnc(Nc2ccccc2)s1 28.2 µM [inhibitor, single point], CCc1cc(C(=O)NNC(=S)Nc2cc(C)ccc2C)cs1 31.6 µM [inhibitor, single point], CC(C)CN1CCNC(=O)C1CC(=O)NCCc1cnn(-c2ccccc2)c1 (stereo unspecified) 17.8 µM [inhibitor, single point], CCCC(=O)Nc1nnc(-c2ccco2)s1 31.6 µM [inhibitor, partial curve], CCN(CC)Cc1c(-c2ccccc2)[nH]c2ccc(C)cc2c1=O 35.5 µM [inhibitor, single point], COc1ccc(C(CNC(=O)c2cc3ccccc3cc2OC)N2CCCC2)cc1 (stereo unspecified) 35.5 µM [inhibitor, single point], N#Cc1c(-c2ccccc2)cc(-c2ccco2)c(C#N)c1N 11.2 µM [inhibitor, partial curve], Cc1nc2ncnn2c(C)c1CCC(=O)NCc1ccc2c(c1)OCO2 39.8 µM [inhibitor, single point], COc1ccc(NC(=S)Nc2ccc(S(=O)(=O)N3CCOCC3)cc2)c(OC)c1 35.5 µM [inhibitor, single point], COc1ccc(-c2ccnc(SCC(=O)c3ccc(Br)cc3)n2)cc1 39.8 µM [inhibitor, single point], O=C(COc1ccccc1)NC(=S)N1CCc2ccccc21 39.8 µM [inhibitor, single point], CC(C)(C)S(=O)(=O)c1ccc2nc3c(n2c1)CCCC3 28.2 µM [inhibitor, single point], O=C(CN1CCN(c2ccccc2F)CC1)c1c[nH]c2ccc(F)cc12 39.8 µM [inhibitor, single point], CCCCn1c(SCC(=O)c2ccc3c(c2)OCCO3)nnc1-c1ccoc1C 39.8 µM [inhibitor, single point], Cc1cc(C)n2ncc(/C(N)=N/OC(=O)Nc3ccc(Cl)cc3)c2n1 39.8 µM [inhibitor, single point], CCCN(CCC)CCCNC(=O)c1cn(CCOC)c(=O)c2c1c1ccccc1n2C 28.2 µM [inhibitor, partial curve], CC[C@H]1C(c2ccccc2)=NN(c2ccccc2)[C@@H]1CO 31.6 µM [inhibitor, partial curve], Cc1sc2ncnc(N3CCN(c4ncccn4)CC3)c2c1C 39.8 µM [inhibitor, single point], O=C(CSc1ncc(-c2ccccc2)n1CC1CCCO1)N1CCCCC1 (stereo unspecified) 25.1 µM [inhibitor, single point], COc1ccc(-c2ccn(-c3cccc(F)n3)n2)cc1 3.55 µM [inhibitor, partial curve], CCn1cnc2cc(NCc3ccc(C)cc3)ccc21 22.4 µM [inhibitor, partial curve], O=C(Cc1c(O)c2ccccc2[nH]c1=O)NC1CCCCCC1 39.8 µM [inhibitor, single point], CC(C)C(c1nnnn1C1CCCC1)N1CCN(c2ccccc2F)CC1 (stereo unspecified) 3.16 µM [inhibitor, full curve], [N-]=[N+]=CC(=O)CC(c1ccccc1)N1C(=O)c2ccccc2C1=O (stereo unspecified) 39.8 µM [inhibitor, single point], O=C(CSc1nc2ccsc2c(=O)n1Cc1ccccc1)NCc1ccco1 22.4 µM [inhibitor, partial curve, poor fit], O=c1c2c3c(sc2ncn1/N=C/c1ccco1)CCCC3 37.7 µM [inhibitor, single point], COc1ccc(OC)c(NC(=S)N2CCc3ccccc3C2)c1 44.7 µM [inhibitor, single point], CCCCc1cc(=O)oc2cc(OCC(=O)N(CC)CC)c(Cl)cc12 25.1 µM [inhibitor, single point], Cc1ccc(S(=O)(=O)NCCCNC(=O)N2CCOCC2)cc1 25.1 µM [inhibitor, single point], Cc1cc(NC(=O)CC(C)(C)C)nc2c1c(=O)oc1ccccc12 2.24 µM [inhibitor, full curve], COc1ccccc1[C@@H]1C(c2ccccc2)=NN(c2ccc(Br)cc2)[C@H]1C(=O)N1CCOC1=O 39.8 µM [inhibitor, single point], COc1ccc(-c2nc(Cc3ccc(Cl)cc3)no2)cc1OC 39.8 µM [inhibitor, single point], CCCCc1nc(Cl)c(C#N)c2c1CCCC2 39.8 µM [inhibitor, single point], N/N=C1/CC(=O)NC(=O)N1 3.16 µM [inhibitor, partial curve], CCOc1cc(N2CCOCC2)c(OCC)cc1NC(=O)c1ccccc1 20 µM [inhibitor, partial curve], Cn1c(SCn2nnc3ccccc3c2=O)nc2ccccc2c1=O 25.1 µM [inhibitor, partial curve], O=C1CCCc2c1cc(C(=O)Nc1ccc(Br)cn1)c(=O)n2-c1ccccc1 37.7 µM [inhibitor, single point]

Potency, active:
O=C(NCCCCc1ccccc1)C12CN(Cc3ccccc3)CC1C(c1ccc([N+](=O)[O-])cc1)=NO2 (stereo unspecified) 11.2 µM, CC(Sc1ccsc1[N+](=O)[O-])C(=O)NCCc1ccc(Cl)cc1 (stereo unspecified) 3.16 µM, CCC(Sc1nc2cc(OC)c(OC)cc2c(=O)n1Cc1ccco1)C(=O)NCCOC (stereo unspecified) 0.794 µM, O=C(c1ccccc1)N1CCN(C(=O)C23CC4CC(CC(C4)C2)C3)CC1 25.1 µM, Cn1c(CCNC(=O)c2ccco2)nc2cc(NS(=O)(=O)c3ccccc3)ccc21 20 µM, COC(=O)C(C)Sc1nc2c(c(=O)n(C)c(=O)n2C)n1Cc1cccc(C)c1 (stereo unspecified) 12.6 µM, CC1=Nn2c(nnc2-c2ccco2)SC1 17.8 µM, CC(=O)c1c(C)[nH]c(C2=NNC(=NC(C)(C)C)SC2)c1C 11.2 µM, O=C(N/N=C\c1ccco1)Nc1cccc(Cl)c1 28.2 µM, CN(C(=O)c1ccccc1)c1ccc(OCC(=O)NC2CCS(=O)(=O)C2)cc1 (stereo unspecified) 14.1 µM, C=CCNC(=S)/C(=C(\[O-])c1ccc(Cl)cc1)[n+]1ccccc1 14.1 µM, Cc1ccc(C)c(NNC(N)=S)c1 12.6 µM, O=C(O)c1cccc(CN2C(=O)SC(Nc3ccccc3)C2=O)c1 (stereo unspecified) 7.08 µM, COc1ccc(OC)c(C(C)NC(=O)Nc2cccc(C(C)=O)c2)c1 (stereo unspecified) 11.2 µM

activity, negative = inhibition, inactive:
C=CCN1c2ccccc2[C@]23C[C@@H](C(=O)OC)N(S(=O)(=O)c4ccc5c(c4)OCCN5C)C2=NC(C(=O)OC)=C(C(=O)OC)[C@H]13 5.81% [at 13.5 µM]
